According to publication PMC6602471:
The list shows a part of the results. At the low end of the ranking the order means little.

molecular target: T1, ETS1 (UniProt P14921); test: custom PBM; settings: custom protein-binding microarray; buffer, salt, pH and temperature not stated; high values mean tight binding; double strand, one strand shown
T1 sequence: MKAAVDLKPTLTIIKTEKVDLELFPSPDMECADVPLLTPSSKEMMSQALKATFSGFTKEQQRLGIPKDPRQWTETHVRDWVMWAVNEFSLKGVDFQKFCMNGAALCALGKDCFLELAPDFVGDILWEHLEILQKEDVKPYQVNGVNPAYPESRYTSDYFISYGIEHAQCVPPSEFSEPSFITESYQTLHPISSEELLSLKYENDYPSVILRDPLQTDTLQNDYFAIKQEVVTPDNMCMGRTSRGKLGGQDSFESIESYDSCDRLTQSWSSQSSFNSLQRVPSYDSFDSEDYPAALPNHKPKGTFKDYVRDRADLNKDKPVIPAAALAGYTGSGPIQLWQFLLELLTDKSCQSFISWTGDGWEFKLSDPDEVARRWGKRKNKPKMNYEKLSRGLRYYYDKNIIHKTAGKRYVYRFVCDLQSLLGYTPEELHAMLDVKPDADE

Sequence | binding signal (log fluorescence intensity)
TAAAGGGCAGACGGTTGTGGTAGTTCCGGGTATTAAGTCTTGATTCGCTTGACGCTGCTG | 8.09
CACAATTTTTACAGTAATGTAGCACGCGAAACTCCTGTCTTGATTCGCTTGACGCTGCTG | 8.22
TACTTACTTATATATGCGAATGCACATGAATAGACCGTCTTGATTCGCTTGACGCTGCTG | 8.15
TGTCGGGTAAGGGAATGTAGTTCACGTGAATGAAAAGTCTTGATTCGCTTGACGCTGCTG | 8.2
CGGAAGTGTCGTAAACGTCGGATATCCGGTTCTGCTGTCTTGATTCGCTTGACGCTGCTG | 11.8
CTGGGACTTGACCCTACTCTGCCACGTGGGTCGTTTGTCTTGATTCGCTTGACGCTGCTG | 8.26
TCCGGCTACCAGCTCCACCCACTGCAGGCCTTGTAGGTCTTGATTCGCTTGACGCTGCTG | 8.34
TGTCGGGTAAGGGAATGTAAATCACGTGAATGAAAAGTCTTGATTCGCTTGACGCTGCTG | 8.21
TGTCGGGTAAGGGAATATAGATCACGTGAATGAAAAGTCTTGATTCGCTTGACGCTGCTG | 8.36
CTGGGACATGACCCAACTCTGCCACGTGGGTCGTTTGTCTTGATTCGCTTGACGCTGCTG | 8.29
CGGGAGTGTCGTAAACGTCGGATATCCGGTTCTTCTGTCTTGATTCGCTTGACGCTGCTG | 11.7
TACTGACTTATATATGCGAATGGACATGAATAGACCGTCTTGATTCGCTTGACGCTGCTG | 8.31
CACAATTTTTACAGTAATGTAGCACTCGTAACTCCTGTCTTGATTCGCTTGACGCTGCTG | 8.26
CGGAAGTGTCGTAAACGTCGGATATCCGGTTCTTCGGTCTTGATTCGCTTGACGCTGCTG | 12
TGACGGGTAAGGGAATGTAGATCACGTGAATGAAAAGTCTTGATTCGCTTGACGCTGCTG | 8.13
TCCGGCTACCAGCTCCACCCACTTAAGGCCTTGTAGGTCTTGATTCGCTTGACGCTGCTG | 8.11
GTGTATAGGATACCATCCAACACACGTGTTAAAATGGTCTTGATTCGCTTGACGCTGCTG | 8.24
TAAAGGGAAGACGGTTGTTGTAGTTCCGGGTATTAAGTCTTGATTCGCTTGACGCTGCTG | 8.54
CTGGGACTTGACCCAACTCTGCCACGTGGCTCGTTTGTCTTGATTCGCTTGACGCTGCTG | 8.24
TAAAGGGAAGACGGTTGTGGCAGTTCCGGGTATTAAGTCTTGATTCGCTTGACGCTGCTG | 8.57
GTGTATAGGATCCCGTCCAACACACGTGTTAAAATGGTCTTGATTCGCTTGACGCTGCTG | 8.28

Sequence | binding signal (log fluorescence intensity)
TACTGACTTATATATGCGAATGCACATGAATAGAGCGTCTTGATTCGCTTGACGCTGCTG | 8.21
TCCGGCTACTAGCTCCACCCACTTCAGGCCTTGTAGGTCTTGATTCGCTTGACGCTGCTG | 8.1
GATTAATTTCTTCCCTTATTCGCACGTGCCATAACAGTCTTGATTCGCTTGACGCTGCTG | 8.21
TGTCGGGTAAGGGAATGTAGATAACGTGAATGAAAAGTCTTGATTCGCTTGACGCTGCTG | 8.12
GATTAATTTCTGCCCTTATTCGCACGTGCCATGACAGTCTTGATTCGCTTGACGCTGCTG | 8.18
CGGAAGTGTCGTAAACATCGGATATCCGGTTCTTCTGTCTTGATTCGCTTGACGCTGCTG | 12
TGTCGGGTAAGGGAATGTAGATCACGTGAATGGAAAGTCTTGATTCGCTTGACGCTGCTG | 8.3
TACTGACTCATATATGCGAATGCACATGAATAGACCGTCTTGATTCGCTTGACGCTGCTG | 8.22
CGGAAGTGTCGTAAACGCCGGATATCCGGTTCTTCTGTCTTGATTCGCTTGACGCTGCTG | 13.1
GGAAGAAGGCCCAGGGTAACACCGGAAGTGGGCTTAGTCTTGATTCGCTTGACGCTGCTG | 12.1
GCTGCTGCGGTGCAAACCCCACCGGATGTGACCCCGGTCTTGATTCGCTTGACGCTGCTG | 10.6
CAGCATAGGACTTCTTCTCTGAAGCAATTGATAACCGTCTTGATTCGCTTGACGCTGCTG | 8.15
CGGAAGTGTCGTAAACGTCGGATATCCGGCTCTTCTGTCTTGATTCGCTTGACGCTGCTG | 10.7
CGGAAGTGTCATAAACGTCGGATATCCGGTTCTTCTGTCTTGATTCGCTTGACGCTGCTG | 11.7
TGTCAGGTAAGGGAATGTAGATCACGTGAATGAAAAGTCTTGATTCGCTTGACGCTGCTG | 8.26
GAATAATTTCTGCCCTTATTCGCACGTGCCATAACAGTCTTGATTCGCTTGACGCTGCTG | 8.37
CGGAAGTGTCGTAAACGTCGGATATCCGGTTCTTCCGTCTTGATTCGCTTGACGCTGCTG | 12.1
ACCGGCTACCAGCTCCACCCACTTCAGGCCTTGTAGGTCTTGATTCGCTTGACGCTGCTG | 8.18
GCTGCTTCGGTGCATACCCCACCGGATGTGACCCCGGTCTTGATTCGCTTGACGCTGCTG | 10.3
CAGCATAGGACTTCTTCCTTGAAGCAATTGATAACCGTCTTGATTCGCTTGACGCTGCTG | 8.31
TAAACGGAAGACGGTTGTGGTAGTTCCGGGTATTAAGTCTTGATTCGCTTGACGCTGCTG | 10.1

Sequence | binding signal (log fluorescence intensity)
GTGTATAGGATCCTATCCAACACACGTGTTAAAATGGTCTTGATTCGCTTGACGCTGCTG | 8.11
TACGGCTACCAGCTCCACCCACTTCAGGCCTTGTAGGTCTTGATTCGCTTGACGCTGCTG | 8.26
CACAATTTTTACAGTTATGTAGCACGCGTAACTCCTGTCTTGATTCGCTTGACGCTGCTG | 8.33
TCTCGGGTAAGGGAATGTAGATCACGTGAATGAAAAGTCTTGATTCGCTTGACGCTGCTG | 8.16
TACTGACTTATATATGCGAATGCACACGAATAGACCGTCTTGATTCGCTTGACGCTGCTG | 8.46
TCAAGGGAAGACGGTTGTGGTAGTTCCGGGTATTAAGTCTTGATTCGCTTGACGCTGCTG | 8.62
CCGGGACTTGACCCAACTCTGCCACGTGGGTCGTTTGTCTTGATTCGCTTGACGCTGCTG | 8.32
GATTAATTTCTGCCCTTATTCGCACGTGCCATTACAGTCTTGATTCGCTTGACGCTGCTG | 8.11
GTGTATAGGATCTCATCCAACACACGTGTTAAAATGGTCTTGATTCGCTTGACGCTGCTG | 8.18
CATCATAGGACTTCTTCCCTGAAGCAATTGATAACCGTCTTGATTCGCTTGACGCTGCTG | 8.16
CAGCATAGGACTTCTTCCCTGAAGCAACTGATAACCGTCTTGATTCGCTTGACGCTGCTG | 8.3
TAAAGGGAAGACGGTTGTGGTAGTTCAGGGTATTAAGTCTTGATTCGCTTGACGCTGCTG | 8.12
GATTAATTTCTGCCCTTATTCGCACGTGCCTTAACAGTCTTGATTCGCTTGACGCTGCTG | 8.2
TATCGGGTAAGGGAATGTAGATCACGTGAATGAAAAGTCTTGATTCGCTTGACGCTGCTG | 8.13
TCCGGCTACCAGCTCCACCCACTCCAGGCCTTGTAGGTCTTGATTCGCTTGACGCTGCTG | 8.29
GCTGCTGCGGTGCATACCCCACTGGATGTGACCCCGGTCTTGATTCGCTTGACGCTGCTG | 8.34
CAGCATAGGACTTCTTACCTGAAGCAATTGATAACCGTCTTGATTCGCTTGACGCTGCTG | 8.17
GGAAAAAGGCCCAGGGTAACACCGGGAGTGGGCTTAGTCTTGATTCGCTTGACGCTGCTG | 8.24
GGAAAAAGGCCCAGGGTAACTCCGGAAGTGGGCTTAGTCTTGATTCGCTTGACGCTGCTG | 10.5
CGGAAGTGTCGTAAACGTCGGATGTCCGGTTCTTCTGTCTTGATTCGCTTGACGCTGCTG | 9.65
GGAAAAAGGGCCAGGGTAACACCGGAAGTGGGCTTAGTCTTGATTCGCTTGACGCTGCTG | 12

Sequence | binding signal (log fluorescence intensity)
GCTGCTGCGGTGCACACCCCACCGGATGTGACCCCGGTCTTGATTCGCTTGACGCTGCTG | 10.3
CTGGGACTTGACCGAACTCTGCCACGTGGGTCGTTTGTCTTGATTCGCTTGACGCTGCTG | 8.43
CTGGGACTTGACCCAACACTGCCACGTGGGTCGTTTGTCTTGATTCGCTTGACGCTGCTG | 8.04
GCCGGCTACCAGCTCCACCCACTTCAGGCCTTGTAGGTCTTGATTCGCTTGACGCTGCTG | 8.09
CACAATTTTTACAGTAATGTAGCACACGTAACTCCTGTCTTGATTCGCTTGACGCTGCTG | 8.28
TAAAGGGAAGACGGTAGTGGTAGTTCCGGGTATTAAGTCTTGATTCGCTTGACGCTGCTG | 8.7
CACAATTTTTACAGTAATGTAGCACGCGTAACTCCCGTCTTGATTCGCTTGACGCTGCTG | 8.13
TCCGGCTACCAGCTCCACCCACGTCAGGCCTTGTAGGTCTTGATTCGCTTGACGCTGCTG | 8.09
GGAAAAAGGCCCAGGGCAACACCGGAAGTGGGCTTAGTCTTGATTCGCTTGACGCTGCTG | 12.2
TCCGGCTACCAGCTCCACCCACTTCAGCCCTTGTAGGTCTTGATTCGCTTGACGCTGCTG | 8.15
CAGCATAGGACTTCTTCCCTGACGCAATTGATAACCGTCTTGATTCGCTTGACGCTGCTG | 8.32
GCTGCTGCGGTGCATACCCCACCGGATGTGAACCCGGTCTTGATTCGCTTGACGCTGCTG | 10
GATTAATTTCTGCCCTTATTCGCACGTGCCAGAACAGTCTTGATTCGCTTGACGCTGCTG | 8.14
CGGAAGTGTCGTAAACGTCGGATATCCGGTTCATCTGTCTTGATTCGCTTGACGCTGCTG | 12.1
CGAAAAAGGCCCAGGGTAACACCGGAAGTGGGCTTAGTCTTGATTCGCTTGACGCTGCTG | 12
CTGGGACGTGACCCAACTCTGCCACGTGGGTCGTTTGTCTTGATTCGCTTGACGCTGCTG | 8.25
TCCGGCTACCAGCTCCACCCACTTCAAGCCTTGTAGGTCTTGATTCGCTTGACGCTGCTG | 8.4
GATTAATTTCTGCCCTTATCCGCACGTGCCATAACAGTCTTGATTCGCTTGACGCTGCTG | 8.09
